# Results taken from PubChem BioAssay AID504333 (National Center for Advancing Translational Sciences (NCATS), 2011).
# Hit rate of the full screen: of about 360,000 compounds, about 16,000 (4.4%) were called active. Inconclusive results, whose numbers are uncertain, are shown with a selection of clear calls. The call rests on the fitted dose curve; in most records, active means well fitted inhibition curve with a large enough effect; inconclusive means small, poorly fitted or top-dose-only effect; inactive means no such curve, though single readings can be large or run the other way. Where the call is inconclusive, the potency comes from a doubtful curve fit.
# Target: Bromodomain adjacent to zinc finger domain protein 2B (Homo sapiens) (UniProt Q9UIF8)
# Sequence of UniProt Q9UIF8 (Q9UIF8 whole entry, looked up, the tested form may be a part): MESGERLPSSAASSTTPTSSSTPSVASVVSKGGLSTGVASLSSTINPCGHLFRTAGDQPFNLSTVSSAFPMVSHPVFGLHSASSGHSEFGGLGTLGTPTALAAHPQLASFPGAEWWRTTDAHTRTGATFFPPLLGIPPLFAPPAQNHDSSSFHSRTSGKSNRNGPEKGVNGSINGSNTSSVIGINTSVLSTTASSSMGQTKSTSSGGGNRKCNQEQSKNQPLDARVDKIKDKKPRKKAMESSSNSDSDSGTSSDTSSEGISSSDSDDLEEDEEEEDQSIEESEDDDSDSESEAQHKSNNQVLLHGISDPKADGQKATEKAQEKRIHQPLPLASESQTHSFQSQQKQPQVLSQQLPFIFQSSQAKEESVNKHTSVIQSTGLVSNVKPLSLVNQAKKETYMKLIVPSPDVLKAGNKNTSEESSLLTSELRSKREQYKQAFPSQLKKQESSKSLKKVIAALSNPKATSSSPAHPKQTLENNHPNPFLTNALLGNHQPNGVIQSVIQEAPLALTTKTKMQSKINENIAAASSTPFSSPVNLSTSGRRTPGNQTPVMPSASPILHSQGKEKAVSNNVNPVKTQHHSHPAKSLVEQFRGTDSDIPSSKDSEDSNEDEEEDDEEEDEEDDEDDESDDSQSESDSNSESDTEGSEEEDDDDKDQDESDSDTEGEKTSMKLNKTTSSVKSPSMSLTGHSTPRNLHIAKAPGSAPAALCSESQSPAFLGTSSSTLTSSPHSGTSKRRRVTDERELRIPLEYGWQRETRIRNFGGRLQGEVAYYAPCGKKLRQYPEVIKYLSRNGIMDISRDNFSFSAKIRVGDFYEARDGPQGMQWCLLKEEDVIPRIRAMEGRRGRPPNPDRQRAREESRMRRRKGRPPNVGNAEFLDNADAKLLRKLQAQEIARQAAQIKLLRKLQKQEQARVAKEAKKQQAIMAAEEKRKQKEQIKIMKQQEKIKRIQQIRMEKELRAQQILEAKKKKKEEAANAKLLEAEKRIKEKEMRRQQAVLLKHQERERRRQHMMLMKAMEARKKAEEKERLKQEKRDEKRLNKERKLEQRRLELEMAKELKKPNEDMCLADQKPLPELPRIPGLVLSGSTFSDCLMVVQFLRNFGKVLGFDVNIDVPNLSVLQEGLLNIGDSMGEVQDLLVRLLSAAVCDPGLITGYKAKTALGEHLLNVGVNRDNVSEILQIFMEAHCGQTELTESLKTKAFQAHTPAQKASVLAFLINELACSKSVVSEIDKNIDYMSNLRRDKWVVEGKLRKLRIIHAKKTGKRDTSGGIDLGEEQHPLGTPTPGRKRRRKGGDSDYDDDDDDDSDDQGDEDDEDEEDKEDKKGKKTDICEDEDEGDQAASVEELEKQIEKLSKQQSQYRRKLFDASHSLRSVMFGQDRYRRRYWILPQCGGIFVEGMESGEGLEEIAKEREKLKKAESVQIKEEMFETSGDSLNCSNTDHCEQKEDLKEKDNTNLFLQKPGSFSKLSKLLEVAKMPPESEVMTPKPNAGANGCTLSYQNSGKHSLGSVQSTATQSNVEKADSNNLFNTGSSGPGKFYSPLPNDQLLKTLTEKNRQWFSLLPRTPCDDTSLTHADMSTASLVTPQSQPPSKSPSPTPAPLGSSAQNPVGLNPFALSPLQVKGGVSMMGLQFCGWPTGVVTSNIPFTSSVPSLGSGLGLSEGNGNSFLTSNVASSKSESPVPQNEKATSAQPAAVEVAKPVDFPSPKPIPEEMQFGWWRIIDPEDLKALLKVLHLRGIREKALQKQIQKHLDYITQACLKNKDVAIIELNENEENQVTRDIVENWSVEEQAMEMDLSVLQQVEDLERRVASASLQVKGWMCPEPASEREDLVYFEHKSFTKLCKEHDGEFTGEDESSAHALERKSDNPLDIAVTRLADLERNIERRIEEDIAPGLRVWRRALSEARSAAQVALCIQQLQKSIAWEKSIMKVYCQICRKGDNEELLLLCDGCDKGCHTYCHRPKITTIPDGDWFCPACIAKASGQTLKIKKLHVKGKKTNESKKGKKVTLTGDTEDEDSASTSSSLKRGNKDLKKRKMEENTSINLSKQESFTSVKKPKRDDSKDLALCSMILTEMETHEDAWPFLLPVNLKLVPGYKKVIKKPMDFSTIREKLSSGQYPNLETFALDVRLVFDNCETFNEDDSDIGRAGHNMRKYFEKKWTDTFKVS
# Assay: qHTS Assay for Inhibitors of BAZ2B; further: nearly all actives have a fitted effect of over 60% in size
# Details: AlphaScreen BAZ2B-H3K14Ac peptide displacement; activity change, negative = inhibition: at 114 µM (top of the series) unless noted
# Summary of the method: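 Complex of BAZ2B and biotin-H3K14Ac (50 nM apiece) forms over 30 min at RT, then faces library compounds up to 110 uM for another 30 min; AlphaScreen beads added, 20 min dark incubation, luminescence read.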
# On the % scale 0 is the no-effect control and ±100 the full control effect; potency means the concentration at half of the fitted maximal effect; tags describe the fitted curve by direction and shape.
Compound,Potency,"activity change, negative = inhibition"
CCOC(=O)C1C(=O)CC(C)(O)C(C(=O)OCC)C1c1ccc(OC)cc1 (stereo unspecified),"inconclusive: 100 µM [inhibitor, single point]",–
CSCCC(NC(=O)c1c(C)oc2c1CCCC2)C(=O)O (stereo unspecified),"inconclusive: 89.1 µM [inhibitor, single point]",–
Cc1cc(/C=N\NC(=O)CC(=O)NC2CCCCC2)c(C)n1-c1cccc(Cl)c1Cl,"inconclusive: 39.8 µM [inhibitor, full curve, poor fit]",–
O=C(O)c1cc2cc(F)ccc2[nH]1,"inconclusive: 63.1 µM [inhibitor, partial curve]",–
CC1CCCC(C)N1C(=O)c1ccc2c(c1)S(=O)(=O)c1ccccc1C2=O (stereo unspecified),"inconclusive: 89.1 µM [inhibitor, single point]",–
COc1ccccc1NC(=O)CCC(=O)O,–,inactive: -5.41%
Oc1c(N=NC(=S)Nc2ccccc2F)c2ccccc2n1Cc1ccccc1,"inconclusive: 2.51 µM [inhibitor, full curve]",–
Nc1ncnc2nc(SCC(=O)N3CCN(c4ccccc4)CC3)[nH]c12,"inconclusive: 50.1 µM [inhibitor, partial curve]",–
CCOc1ccc(Nc2nc(C)c(NC(=O)c3cccc(OC)c3)c(Nc3ccc(OCC)cc3)n2)cc1,"inconclusive: 3.55 µM [inhibitor, full curve]",–
CCOC(=O)c1ccccc1NC(=O)CSc1cn(CC(=O)N2CCOCC2)c2ccccc12,"inconclusive: 89.1 µM [inhibitor, single point]",–
Cc1nn(C)c(Cl)c1CN1CCC(CO)(CCOc2ccccc2)CC1,"inconclusive: 89.1 µM [inhibitor, single point]",–
Cc1[nH]c2ccc(C(=O)OCC(=O)Nc3cccc(S(N)(=O)=O)c3)cc2c1C,"inconclusive: 89.1 µM [inhibitor, single point]",–
CCOC(=O)C1=C(C)N=C2c3ccccc3C(=O)C2C1c1ccc(Cl)cc1 (stereo unspecified),active: 12.6 µM,–
Cc1ccc(C(=O)OCC(=O)c2cc(C)n(CC3CCCO3)c2C)cc1 (stereo unspecified),"inconclusive: 70.8 µM [inhibitor, partial curve]",–
O=C(COC(=O)CSc1ccc([N+](=O)[O-])cc1)NCc1ccco1,"inconclusive: 70.8 µM [inhibitor, single point]",–
O=C(CCCCn1c(=S)[nH]c2ccsc2c1=O)NCc1ccc2c(c1)OCO2,"inconclusive: 89.1 µM [inhibitor, single point]",–
COc1cccc(C(Nc2ccccn2)c2oc(CO)cc(=O)c2O)c1 (stereo unspecified),active: 79.4 µM,–
CCCC(c1nnnn1C(C)(C)CC)N1CCN(C2CCCC2)CC1 (stereo unspecified),"inconclusive: 100 µM [inhibitor, single point]",–
COc1cccc(OC)c1OCCN(C)C,active: 35.5 µM,–
CC(=O)c1cc2c(cc1NC(=O)c1cnn(-c3ccc(C)cc3)c1-n1cccc1)OCO2,–,inactive: -4.84%
CCCCSCCCNC(=O)C1CCN(Cc2nc(-c3cccc(Br)c3)oc2C)CC1,"inconclusive: 89.1 µM [inhibitor, single point]",–
Cn1cc(CN2CCN(c3ccccc3)CC2)c2ccccc21,"inconclusive: 28.2 µM [inhibitor, full curve, poor fit]",–
Cc1ccc(NC(=O)CSc2nc(NS(=O)(=O)c3ccccc3)cc(=O)[nH]2)cc1,"inconclusive: 63.1 µM [inhibitor, single point]",–
O=C(CCNC(=O)C1CCN(S(=O)(=O)c2ccc(F)cc2)CC1)NCc1ccccc1,–,inactive: -10.4%

Compound,Potency,"activity change, negative = inhibition"
Oc1ccc(C(=S)N2CCN(c3cccc(Cl)c3)CC2)cc1,active: 39.8 µM,–
Cc1ccc(-c2csc3n[nH]c(=S)n23)cc1,active: 28.2 µM,–
c1cc(SSc2ccncc2)ccn1,"inconclusive: 79.4 µM [inhibitor, single point]",–
CCn1c(CC(=O)Nc2ccc(C)cc2)nnc1SCC(=O)N1CCN(c2ccccc2)CC1,"inconclusive: 89.1 µM [inhibitor, single point]",–
Cc1ccc(-c2ccc(CCC(=O)O)n2CC(=O)O)cc1,"inconclusive: 39.8 µM [inhibitor, partial curve]",–
Nc1nc(NC(=O)/C=C\C(=O)O)nn1-c1ccccc1,active: 22.4 µM,–
NC(=O)N/N=C/c1ccccc1OCC(=O)NCc1ccccc1,–,inactive: 1.28%
COc1ccc(NC(=O)c2nc[nH]c2C(=O)NCC(=O)OC(C)(C)C)cc1,"inconclusive: 79.4 µM [inhibitor, single point]",–
CN1CCN(S(=O)(=O)c2cnccc2N2CCN(c3cccc(Cl)c3)CC2)CC1,"inconclusive: 79.4 µM [inhibitor, single point]",–
CC(C)OCc1cc(CN2CCN(c3ccccc3)CC2)c(O)c2ncccc12,active: 8.91 µM,–
CCn1cc(C(=O)O)c(=O)c2cc(F)c(N3CCN(C(=S)NC(=O)c4ccc(F)cc4)CC3)cc21,"inconclusive: 79.4 µM [inhibitor, single point]",–
CC(=O)Oc1ccc(-c2nc3cc(Cl)ccc3c(=O)o2)cc1,"inconclusive: 89.1 µM [inhibitor, single point]",–
COc1cc(OC)c(CNC2CCCCCC2)cc1Br,"inconclusive: 79.4 µM [inhibitor, single point]",–
COc1ccc(/C=C(/C#N)C(=O)Nc2cccc(C)c2C)cc1C(=O)O,–,inactive: 4.1%
CCC(=O)Nc1ccc(N2CCC(C)CC2)cc1,–,inactive: -6.81%
COc1ccc(NC(=O)c2c(NCc3cccc(F)c3)sc3c2CCCC3)c(OC)c1,active: 25.1 µM,–
Clc1ccc(-c2csc(Nc3ccccc3)[n+]2Cc2ccco2)c(Cl)c1,active: 25.1 µM,–
CCOC(=O)c1cnc(-n2[nH]c(C)cc2=O)[nH]c1=O,active: 1.78 µM,–
Cc1ccc(-n2nc3c(c2NC(=O)c2cc4ccccc4o2)CS(=O)(=O)C3)cc1,–,inactive: -3.88%
CNC(=O)c1nc[nH]c1C(=O)NC,"inconclusive: 89.1 µM [inhibitor, single point]",–
O=C(Oc1csc(=S)n1C(=O)c1ccccc1)c1ccccc1,"inconclusive: 89.1 µM [inhibitor, single point]",–
O=[N+]([O-])c1cc(-c2n(-c3ccccn3)c3ccccc3[n+]2-c2ccccn2)ccc1Cl,active: 44.7 µM,–
CCOc1ccc(NC(=O)CN2C(C(=O)OC)=C(c3ccccc3)c3cc(Cl)ccc3S2(=O)=O)cc1,–,inactive: -3.89%
CCN(CC)S(=O)(=O)c1ccc(C)c(NC(=O)COC(=O)[C@@H]2CCCN2C(=O)c2cccs2)c1,"inconclusive: 50.1 µM [inhibitor, partial curve]",–

Compound,Potency,"activity change, negative = inhibition"
COc1ccc(C2=CC(c3ccc(Cl)cc3)n3cnnc3N2)cc1OC (stereo unspecified),"inconclusive: 89.1 µM [inhibitor, single point]",–
COc1ccc(CN2C(=NC(=O)C3CCCO3)SC3CS(=O)(=O)CC32)cc1OC (stereo unspecified),–,inactive: -23.9%
Cc1cc(=O)[nH]c2nnc(SCc3ccc(Cl)cc3)n12,"inconclusive: 39.8 µM [inhibitor, single point]",–
C/C(=N\Nc1ccc([N+](=O)[O-])cc1[N+](=O)[O-])C(C)(C)C(C(=O)O)C(=O)O,"inconclusive: 79.4 µM [inhibitor, single point]",–
Cc1ccc(-n2c(Cl)c(Cl)[nH]c(=O)c2=O)cc1,"inconclusive: 89.1 µM [inhibitor, single point]",–
O=C(Nc1ccccc1C(F)(F)F)c1cc2ccccn2n1,"inconclusive: 89.1 µM [inhibitor, single point]",–
CN1CCN(CCCNC(=O)c2ccc3c(c2)N(Cc2ccc(F)cc2)CCS3)CC1,"inconclusive: 22.4 µM [inhibitor, single point]",–
CCOc1cc(CNCCSc2nnnn2-c2ccccc2)ccc1OC,–,inactive: -28.8%
Cc1cc(C)c(NC(=O)C(C)n2nnc3sc(-c4ccccc4)cc3c2=O)c(C)c1 (stereo unspecified),"inconclusive: 89.1 µM [inhibitor, single point]",–
C#CCn1cc(/C=C2\NC(=O)NC2=O)c2ccccc21,"inconclusive: 79.4 µM [inhibitor, single point]",–
COC(=O)c1cccc(NC(=O)CSc2nc(C)cc(=O)[nH]2)c1,"inconclusive: 89.1 µM [inhibitor, single point]",–
CCc1cc(=O)oc2c(C)c(OC(C)C(=O)NCCCn3ccnc3)ccc12 (stereo unspecified),"inconclusive: 79.4 µM [inhibitor, single point]",–
O=C(O)c1cccnc1,"inconclusive: 79.4 µM [inhibitor, partial curve, poor fit]",–
Cc1c(OCC(=O)NCCCN2CCOCC2)ccc2c(-c3ccccc3)cc(=O)oc12,"inconclusive: 79.4 µM [inhibitor, single point]",–
COc1ccc(NC(=S)NCC(c2cccnc2)N2CCOCC2)cc1 (stereo unspecified),–,inactive: 0.972%
Cc1cccc(Nc2c([N+](=O)[O-])ccc3nonc23)c1C,"inconclusive: 5.62 µM [inhibitor, full curve, poor fit]",–
COc1cccc(CN2CCN(c3ncccn3)CC2)c1OC,active: 50.1 µM,–
Cn1c(N)c(C(=O)NCc2ccccc2)sc1=S,"inconclusive: 50.1 µM [inhibitor, partial curve]",–
Cc1ccc(S(=O)(=O)N2CCN(Cc3nc4ccccc4[nH]3)CC2)cc1C,"inconclusive: 5.01 µM [inhibitor, full curve]",–
O=[N+]([O-])c1ccc(CSc2ccc(S(=O)(=O)N3CCCC3)cn2)cc1,–,inactive: -5.59%
O=C1C([N+](=O)[O-])=C(O)c2cccc3cccc1c23,active: 44.7 µM,–
CCOC(=O)c1cc2c(ccn2C)n1CC(=O)N(Cc1ccccc1)c1ccccc1,active: 31.6 µM,–
Cc1ccc(Nc2c(-c3ccc(N4CCOCC4)cc3)nc3cnccn23)cc1,"inconclusive: 50.1 µM [inhibitor, partial curve]",–
